Out of some 360,000 compounds screened, about 7,500 (2.1%) were called active. The shares of active, inactive and inconclusive entries below differ from those in the screen. The call rests on the fitted dose curve; in most records, active means well fitted cell-killing curve with a large enough effect; inconclusive means small, poorly fitted or top-dose-only effect, or effect the other way, or another doubt; inactive means no such curve, though single readings can be large or run the other way. No potency is given beside an inconclusive call; the fits are too rough.
assay: qHTS for induction of synthetic lethality in tumor cells producing 2HG: qHTS for the HT-1080-IDH1KD cell line; settings: HT-1080 IDH1 knockdown viability, ATP luminescence, 48 h; activity, negative = toxicity: at 46.1 µM (top of the series) unless noted;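 on activity, negative = toxicity: 0% = DMSO wells and -100% = cell-free medium wells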
Method in brief: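 IDH1KD HT-1080 cells, 750/well, RPMI + 5% FBS; compound pinned after 2 h settling; 48 h, 37 °C; CellTiter-Glo luminescence; % activity normalised to DMSO and no-cell wells; curves fitted, classed by r2 and efficacy.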
Potency means the concentration at half of the fitted maximal effect; tags describe the fitted curve by direction and shape.

Q: Which “activity, negative = toxicity” value does the source give for CCCC(=O)N1CCC1(C)C(=O)Nc1ccc2c(c1)CCN2C(C)=O (centres undefined) here?
A: inactive: 17.9%

Q: With O=C(NC(NC(=S)Nc1c(Cl)cccc1Cl)C(Cl)(Cl)Cl)c1cccc([N+](=O)[O-])c1 (centres undefined) as the compound, how does the Potency read?
A: inconclusive [cytotoxic, single point]

Q: For O=C(Nc1ccc(Cn2nnc3ccccc32)cc1)c1ccco1, which Potency is on record?
A: inconclusive [cytotoxic, single point]

Q: With OC(C#Cc1ccccn1)c1cccs1 (centres undefined) as the compound, how does the Potency read?
A: inconclusive [cytotoxic, single point]

Q: With O=C(Nc1ccccc1O)c1c(O)c2c([nH]c1=O)CCCC2 as the compound, how does the Potency read?
A: inconclusive [cytotoxic, single point]

Q: With Cc1cc(S(=O)(=O)Nc2ccc3cn[nH]c3c2)c(C)cc1Cl as the compound, how does the Potency read?
A: inconclusive [cytotoxic, single point]

Q: With O=c1c(Br)ccc(Br)cc1Br as the compound, how does the Potency read?
A: active: 5.17 µM

Q: For O=C(NC(=S)NNC(=O)c1cccs1)c1ccc(Br)o1, which Potency is on record?
A: inconclusive [cytotoxic, single point]

Q: For Clc1ccc(-c2cc(C3CCNCC3)[nH]n2)c(Cl)c1, which Potency is on record?
A: active: 23.1 µM

Q: With O=[N+]([O-])c1ccc(O)c(C(C#Cc2ccccc2)N2CCOCC2)c1 (centres undefined) as the compound, how does the Potency read?
A: inconclusive [cytotoxic, single point]

Q: With O=C(NCCN1C(=O)S/C(=C\c2cccnc2)C1=O)C1=NN(c2ccccc2)C(=O)CC1 as the compound, how does the “activity, negative = toxicity” value read?
A: inactive: 1.27%

Q: For S=C(c1ccc2c(c1)OCO2)N1CCN(c2cccc(Cl)c2)CC1, which Potency is on record?
A: active: 3.26 µM

Q: With CCC1OC(C2CC2)CC2=C1C(=O)OC(C)(C)O2 (centres undefined) as the compound, how does the “activity, negative = toxicity” value read?
A: inactive: 0.481%

Q: For O=C(CSc1nc2ccccc2o1)N1c2ccccc2Sc2ccc(Cl)cc21, which Potency is on record?
A: inconclusive [cytotoxic, single point]

Q: Which Potency does the source give for COc1ccc(N2CCN(CC(=O)Nc3cc(C)on3)CC2)cc1 here?
A: inconclusive [rising, single point]

Q: Which Potency does the source give for O=C(NCc1ccc2c(c1)OCO2)c1cc([N+](=O)[O-])ccc1N1CCCCC1 here?
A: active: 8.2 µM

Q: With COc1ccc(C(=O)NC(=S)NNC(=O)c2ccc3ccccc3n2)cc1 as the compound, how does the Potency read?
A: inconclusive [cytotoxic, partial curve]

Q: With COc1cc(/C=N/NC(=O)COc2c(C)cc([N+](=O)[O-])cc2C)ccc1OC(=O)c1ccccc1 as the compound, how does the Potency read?
A: active: 18.4 µM

Q: For Cc1nc(C)c(-c2csc(Nc3cccc(O)c3)n2)s1, which Potency is on record?
A: inconclusive [cytotoxic, partial curve]

Q: For COc1ccc(CNC(=O)Cc2ccc(NC(=O)C3=C(C)OCCS3)cc2)cc1, which Potency is on record?
A: active: 5.8 µM

Q: With O=C(Cc1ccccc1[N+](=O)[O-])OCC(=O)c1c[nH]c2ccccc12 as the compound, how does the “activity, negative = toxicity” value read?
A: inactive: 10.7%

Q: With Cc1cccc(NC(=S)NNC(=O)CCn2cc(C)cn2)c1 as the compound, how does the Potency read?
A: active: 2.82 µM

Q: Which “activity, negative = toxicity” value does the source give for O=C1CCCN1CCC(=O)N1CCCC(N2CCN(c3ccccc3F)CC2)C1 (centres undefined) here?
A: inactive: 1.67%

Q: With COc1cc(/C=C/C(=O)N2CCOCC2)ccc1OCc1ccccc1 as the compound, how does the “activity, negative = toxicity” value read?
A: inactive: -10.4%

Q: With COCC(C)n1c(C)cc(C(=O)COC(=O)/C=C/c2cccc(F)c2)c1C (centres undefined) as the compound, how does the “activity, negative = toxicity” value read?
A: inactive: -0.89%

Q: For CCOC(=O)N1CCN(C(=O)COc2ccc(S(=O)(=O)Nc3ccc(OCC)cc3)cc2)CC1, which Potency is on record?
A: inconclusive [cytotoxic, single point]

Q: For O=C(N/N=C/c1cc(Br)c(Br)o1)c1cc2ccccc2o1, which Potency is on record?
A: inconclusive [cytotoxic, single point]

Q: Which Potency does the source give for Cc1cc(Cl)nc(NC(=O)Nc2cccc(Cl)c2)n1 here?
A: inconclusive [rising, partial curve]

Q: For Cc1ccc(Cl)cc1N1CCN(C(=O)c2cccc3c(=O)c(C)c(-c4ccccc4)oc23)CC1, which Potency is on record?
A: inconclusive [cytotoxic, single point]

Q: Which Potency does the source give for COC(=O)c1ccc(C)c(NS(=O)(=O)c2ccc(NC(C)=O)cc2)c1 here?
A: inconclusive [cytotoxic, single point]

Q: Which Potency does the source give for COc1ccc(-c2nc3c(C)cc(Br)cn3c2Cc2ccsc2)cc1OC here?
A: inconclusive [cytotoxic, partial curve]

Q: Which Potency does the source give for COc1ccc(C2C(O)C(c3c[nH]c4ccccc34)=NN2C(=O)CCl)cc1 (centres undefined) here?
A: active: 0.651 µM

Q: Which “activity, negative = toxicity” value does the source give for c1coc(-c2nnc(SCc3nc4ccccc4[nH]3)o2)c1 here?
A: inactive: -18.8%

Q: For CCOC(=O)N1CCC(N2CC34C=CC(O3)C(C(=O)Nc3ccc(OCC)cc3)C4C2=O)CC1 (centres undefined), which activity, negative = toxicity is on record?
A: inconclusive: -6.2% [cytotoxic]

Q: Which Potency does the source give for CC(C)SCCCCOc1ccc2ccccc2c1 here?
A: inconclusive [cytotoxic, single point]

Q: For COc1ccc(S(=O)(=O)N2CCCCCC2)cc1C(=O)N(C)CC(=O)Nc1ccccc1Br, which “activity, negative = toxicity” value is on record?
A: inactive: -0.597%

Q: For Cc1nn(-c2ccccc2)c(N2CCCC2)c1/C=N/NC(=S)Nc1ccccc1C(F)(F)F, which “activity, negative = toxicity” value is on record?
A: inactive: 2.93%

Q: For N=C(N)c1ccc(OCCCCCOc2ccc(C(=N)N)cc2)cc1, which Potency is on record?
A: inconclusive [cytotoxic, partial curve]

Q: For O=C(OC[C@H]1O[C@@H](OC(=O)c2cc(O)c(O)c(OC(=O)c3cc(O)c(O)c(O)c3)c2)[C@H](OC(=O)c2cc(O)c(O)c(OC(=O)c3cc(O)c(O)c(O)c3)c2)[C@@H](OC(=O)c2cc(O)c(O)c(OC(=O)c3cc(O)c(O)c(O)c3)c2)[C@@H]1OC(=O)c1cc(O)c(O)c(OC(=O)c2cc(O)c(O)c(O)c2)c1)c1cc(O)c(O)c(OC(=O)c2cc(O)c(O)c(O)c2)c1, which Potency is on record?
A: inconclusive [cytotoxic, partial curve, poor fit]

Q: With C[C@H](CO)N1C[C@H](C)[C@@H](CN(C)C(=O)Nc2ccc(C(F)(F)F)cc2)Oc2ccc(NC(=O)Nc3ccc(C(F)(F)F)cc3)cc2C1=O as the compound, how does the Potency read?
A: inconclusive [cytotoxic, single point]

Q: For Oc1ccc(N=C/C=C/c2cccc(Br)c2)cc1-c1nc2ccccc2s1, which Potency is on record?
A: inconclusive [cytotoxic, single point]

Q: With CCCCCCCNC(=O)C1(CC2CC(c3cccc(Br)c3)=NO2)CCN(C(=O)CCCCCBr)CC1 (centres undefined) as the compound, how does the Potency read?
A: inconclusive [cytotoxic, single point]

Q: With COc1ccc(-c2nn(-c3ccccc3)cc2C(=O)Nc2nc(CC(C)=O)ns2)cc1 as the compound, how does the Potency read?
A: inconclusive [cytotoxic, single point]

Q: With FC(F)(F)c1ccc(N2CCOCC2)c(Nc2nc3ccccc3n3cnnc23)c1 as the compound, how does the Potency read?
A: inconclusive [cytotoxic, single point]

Q: With CC(Nc1nc(-c2ccc(F)cc2)cs1)c1nc2cc(Cl)c(Cl)cc2n1CCCO (centres undefined) as the compound, how does the Potency read?
A: inconclusive [cytotoxic, single point]

Q: For CCCC(=O)NC(c1ccc(C(C)C)cc1)c1ccc2cccnc2c1O (centres undefined), which Potency is on record?
A: inconclusive [cytotoxic, full curve]

Q: With Cc1cc(NC(=O)CSc2ccc(-c3nc4cc(C)c(C)cc4[nH]3)cn2)no1 as the compound, how does the Potency read?
A: inconclusive [cytotoxic, partial curve, poor fit]

Q: For CC1CCCCC12NC(=O)N(CC(=O)NCCc1ccc(F)cc1)C2=O (centres undefined), which “activity, negative = toxicity” value is on record?
A: inactive: 1.29%

Q: Which Potency does the source give for COc1ccc(CN2CCC(N(CCc3ccccc3)Cc3ccccc3)CC2)c(OC)c1 here?
A: inconclusive [cytotoxic, single point]

Q: With COc1cc(COc2ccc3c(C)c(Cc4ccccc4)c(=O)oc3c2C)cc(OC)c1OC as the compound, how does the Potency read?
A: inconclusive [cytotoxic, single point]

Q: With COc1cc(F)ccc1-c1cc(C(=O)Nc2cc(OC)c(OC)c(OC)c2)[nH]n1 as the compound, how does the “activity, negative = toxicity” value read?
A: inactive: 6.56%

Q: Which “activity, negative = toxicity” value does the source give for CCS(=O)(=O)C1=NN2C(=N)/C(=C\c3ccc(SCc4ccco4)o3)C(=O)N=C2S1 here?
A: inactive: -11.2%

Q: Which “activity, negative = toxicity” value does the source give for CCc1cccc2c1NC(=O)C2=O here?
A: inactive: -2.75%

Q: Which “activity, negative = toxicity” value does the source give for CCn1nc(C(=O)NC2=NCCS2)c2ccccc2c1=O here?
A: inactive: 0.432%

Q: For COc1ccc(/C=N\NC(=O)c2ccc(=O)[nH]n2)cc1O, which Potency is on record?
A: inconclusive [rising, single point]

Q: For c1ccc(Sc2cccc3ccccc23)c(CNC2=NCCN2)c1, which Potency is on record?
A: inconclusive [cytotoxic, single point]

Q: For Cc1cccc(Oc2sc(C(=O)c3ccccc3)c(N)c2C#N)c1, which Potency is on record?
A: inconclusive [cytotoxic, single point]

Q: With Clc1ccc(/C=N/Nc2ccccn2)cc1 as the compound, how does the “activity, negative = toxicity” value read?
A: inactive: 9.39%

Q: Which Potency does the source give for C[n+]1c2n(c3ccccc31)N=C(c1ccc(Br)cc1)CS2 here?
A: active: 12.6 µM

Q: With NC1=NN=C(c2ccc3c(c2)OCCO3)CS1 as the compound, how does the Potency read?
A: inconclusive [cytotoxic, partial curve]

Q: Which “activity, negative = toxicity” value does the source give for CC(C)NC(=O)c1cc(-c2ccco2)nn1-c1ccc(Cl)cc1 here?
A: inactive: -15.4%

Q: Which “activity, negative = toxicity” value does the source give for CC1=C(CCN2CCN(C3CCCC3)C(CCO)C2)C(C)(C)CCC1 (centres undefined) here?
A: inactive: -21.1%

Q: Which Potency does the source give for CC(C)(C)n1nnnc1C(c1cc2ccccc2o1)N1CCN(C(=O)OCc2ccccc2)CC1 (centres undefined) here?
A: inconclusive [cytotoxic, single point]

Q: For COc1ccc(CCC(=O)N2c3ccccc3N=C(c3ccc(C(F)(F)F)cc3)C2C(=O)NC(C)C)cc1 (centres undefined), which Potency is on record?
A: inconclusive [cytotoxic, single point]

Q: For Cc1noc(C)c1COc1cccc(C(=O)Nc2ccc3c(c2)OCO3)c1, which Potency is on record?
A: inconclusive [cytotoxic, single point]

Q: With CCOC(=O)Cn1nnnc1CN1CCN(c2ccc(OC)cc2)CC1 as the compound, how does the activity, negative = toxicity read?
A: inconclusive: 31.4%

Q: With O=C(Nc1cccc(O)c1)C(=O)Nc1ccccn1 as the compound, how does the Potency read?
A: inconclusive [cytotoxic, partial curve]

Q: With COc1ccc([C@H]2C[C@H](n3cc(-c4ccc(F)cc4)nn3)[C@@H](O)CN2C(=O)C2CCCCC2)cc1 as the compound, how does the “activity, negative = toxicity” value read?
A: inactive: -15%

Q: With Cc1cccc(NC(=S)NC(=O)c2cccs2)n1 as the compound, how does the Potency read?
A: active: 5.62 µM

Source: PubChem BioAssay AID686971 (National Center for Advancing Translational Sciences (NCATS), 2013)
